Source: the supplement of paper PMC3724861
Some of the results follow.

System: T1, Caupolican (Caup) homeodomain DNA-binding domain
T1 sequence: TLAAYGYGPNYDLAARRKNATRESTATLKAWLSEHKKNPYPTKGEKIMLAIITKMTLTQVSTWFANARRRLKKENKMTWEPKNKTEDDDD
Assay: PBM E-score (8-mer, recovered from the published 9-mer minima) (E-score (dimensionless, -0.5 to 0.5)); Drosophila protein; higher = stronger relative binding preference, active = 0.31 or more
Outline: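 Caup's homeodomain DNA-binding domain (residues 214-303) was made by in vitro transcription and translation and applied at 100 nM to custom-designed protein binding microarrays. Each value is an enrichment score that gives relative binding preference for a short DNA word, with higher meaning stronger. The 8-mer values were recovered from published 9-mer scores, each of which was the minimum of its two constituent 8-mer scores. A cutoff of 0.31 marks candidate sites.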

Sequence	PBM E-score
AAAAGAAA	inactive: 0.0427
GCAATCCC	inactive: -0.15
AGGTAACA	active: 0.327
GAATGAAC	inactive: 0.105
ACAGTCGA	inactive: -0.0106
AAGCAGCG	inactive: 0.0172
GCACTACC	inactive: -0.0936
CAGAACGC	inactive: -0.135
GAACCCGA	inactive: -0.0939
CTAAGTCC	inactive: -0.186
GCACGCGA	inactive: -0.0177
CTGAGTTC	inactive: -0.0316
GGGGTGAC	inactive: -0.0866
CTCACTCC	inactive: -0.192
TACCCAAA	inactive: 0.00835
CCGCAAAC	inactive: -0.0254
AGCTCAAG	inactive: -0.135
ACTTGTAT	active: 0.391
GGGCAACC	inactive: -0.165
ACACTATG	inactive: 0.16
GCGCGAGC	inactive: -0.279
CCACCGAG	inactive: -0.107
CTTGAAAG	inactive: -0.0583
CTATAGGC	inactive: -0.157
AGCATCAG	inactive: -0.0319

Sequence	PBM E-score
ATAGTCCA	≥ 0.137
CCCCATAG	inactive: -0.12
GTGGACAC	inactive: 0.126
CCGATTGC	inactive: 0.0367
CATATTTC	inactive: 0.129
CGTTCCCA	inactive: -0.122
CAACAATG	active: 0.323
ATCAATCC	inactive: 0.0425
AAATATTA	inactive: 0.256
ACGAGGTA	inactive: 0.06
CCGTCGAA	inactive: -0.108
GGGCACAC	inactive: -0.156
CACAGGCC	inactive: -0.0917
GAGCGGGA	inactive: -0.184
TCATTGAA	inactive: 0.133
CTGGAATC	inactive: 0.00521
CATTTCGA	inactive: 0.0622
CATCTGGC	inactive: -0.134
AAATTATA	inactive: 0.088
TAGAATAA	inactive: 0.174
CATAGCCC	inactive: -0.0328
ATAAACTG	inactive: 0.0488
CTTTAACC	inactive: -0.0171
AACTATGC	inactive: 0.0512
AAGCCAAA	inactive: -0.0704

Sequence	PBM E-score
ACGTTGAG	inactive: 0.0174
CCGGAAGG	inactive: -0.241
CCTGAGTA	inactive: 0.00143
AATTAAGC	inactive: 0.0235
CTTGGTGA	inactive: -0.106
GAATAAGA	inactive: 0.0109
CTGGCCGC	≥ -0.177
CTCAGTAA	inactive: -0.00161
AGCGATGG	inactive: -0.192
AAGACTGA	inactive: 0.0567
CCGAAAAC	inactive: -0.0316
GAGACTAC	inactive: -0.0245
ACATACAG	inactive: 0.247
GTACTAAC	inactive: 0.192
CATCAAGG	inactive: -0.0295
CCAATTAC	inactive: 0.119
GTCGCTGA	inactive: 0.0108
GACCACAA	inactive: -8e-05
AATGGTAG	inactive: 0.131
CTCCGTGA	inactive: -0.0581
ACCTACAG	inactive: 0.0545
GCATCTTA	inactive: 0.0716
AACCCCCC	inactive: -0.293
ATGCCCCC	inactive: -0.24
CGCAGAGC	inactive: -0.14

Sequence	PBM E-score
CTAACTGC	inactive: -0.0985
GTCCTTGA	inactive: 0.0017
AAAAGCGA	inactive: 0.00198
CATCGTGC	inactive: 0.0673
AACCGTCG	inactive: -0.0221
CCTATGCG	inactive: -0.0298
ATCCCGCA	≥ -0.0491
CGGAGCCA	inactive: -0.23
CCATTACA	inactive: 0.259
GAGGGCAC	inactive: -0.183
GCTTAGGA	inactive: -0.0742
ATTATAAG	inactive: 0.0375
CAATATCG	inactive: 0.0696
AGCCCCCC	inactive: -0.338
ACGGCAAA	inactive: 0.0766
ACCCTTTA	inactive: -0.00288
GTGAATGA	inactive: 0.1
CAGACTGC	inactive: -0.0434
AAGGTACG	inactive: 0.0801
ACTTTGGG	inactive: -0.0934
GCCGGGCA	inactive: -0.327
AGAGATAG	inactive: -0.0252
ATACTTGA	inactive: 0.203
AACCCCTA	inactive: -0.118
GCCAGCGC	inactive: -0.273

Sequence	PBM E-score
ACAATTAC	inactive: 0.251
TCTAAGAA	inactive: 0.0455
ACTCGTAG	inactive: 0.0446
AGACCGCG	≥ -0.0645
GAAAATGC	inactive: -0.0074
AGTCAGAC	inactive: -0.0283
ATCAACGG	inactive: 0.00112
AGCCGATC	inactive: -0.0478
CAGATACC	inactive: 0.0195
CCTATCAG	inactive: -0.029
ACTGGTTG	inactive: 0.0109
AGAGCCTG	inactive: -0.0589
GCAATGCA	inactive: 0.0191
CGTGGTAA	≥ 0.159
ATGTTTCG	inactive: 0.173
ATTTGTGC	inactive: 0.0549
CCACCTGG	inactive: -0.113
ACCGCTAT	inactive: -0.0581
TAAGGAGA	inactive: -0.0521
CCCTTGAA	inactive: -0.0597
ATCCACCG	inactive: -0.0335
CAGTTTGG	inactive: -0.0942
GCGTGAGC	inactive: -0.149
GTCCACCA	inactive: -0.0287
CCTCTTTC	inactive: -0.127

Sequence	PBM E-score
CGATATGC	inactive: 0.0375
GGTTCTAA	inactive: -0.0345
CATTACAC	active: 0.311
CATTCTGG	inactive: -0.0669
CTGAAGGA	inactive: -0.173
AAGTGGCG	≥ -0.0381
CTCTAACA	inactive: 0.152
GCTCGTGA	inactive: -0.064
ACCACGAT	≥ 0.148
AATTCTTC	inactive: -0.0448
CTCTAGTA	inactive: 0.126
AGTAGTCC	inactive: -0.0227
TACACTCA	≥ 0.179
GGGGCGGA	inactive: -0.329
ATGTCGAA	inactive: 0.291
CATCCGGA	inactive: -0.00251
ACCCACCA	inactive: -0.0814
CCTCGGTC	inactive: -0.135
CTTAGAAC	inactive: -0.00381
CATTAGAG	inactive: -0.0558
AGACTCAA	inactive: 0.0337
CTAAAACA	inactive: 0.191
AATGAATG	inactive: 0.169
CGAATGGA	≥ 0.0344
TGTTTTAA	inactive: 0.254

Sequence	PBM E-score
ATTCCCGA	inactive: -0.0386
ACGTTTAC	inactive: 0.106
AATTAAAA	inactive: 0.0931
CATACACA	inactive: 0.309
ATCTACCG	inactive: -0.0221
AACTAGAG	inactive: 0.0141
TGACTGAA	inactive: -0.0626
AGACACGA	inactive: 0.261
CGCACACC	inactive: -0.0918
ACGGCTTA	inactive: -0.137
GCTTAGCC	inactive: -0.113
CATCTGGG	inactive: -0.0619
GGGATGCA	inactive: -0.124
ACAATCTA	inactive: 0.136
GATACTCA	inactive: -0.0139
GACTCGCC	inactive: -0.195
CCGAGTGA	inactive: 0.00532
ATCACTCA	inactive: 0.0935
GGGAGCGA	inactive: -0.21
GATCTAAA	inactive: -0.0342
ACTAGAGG	inactive: -0.0325
CCATACGG	inactive: -0.049
TTAGGCAA	inactive: -0.00698
ACAACACG	active: 0.387
GGGGACGA	inactive: -0.139

Sequence	PBM E-score
AACATAAA	inactive: 0.286
AGATTTAT	inactive: 0.0344
AATTACAA	active: 0.396
GTAGCGCA	inactive: -0.05
GCGTATTA	inactive: 0.0562
TAGCGCAA	inactive: -0.00448
AACGCACT	≥ 0.0457
CTGGGACA	inactive: 0.0672
CCGGCTAA	inactive: -0.0794
AAGGACAA	inactive: 0.223
AATTTGTG	inactive: 0.106
AAACTTCT	inactive: 0.0695
GGCAAGCC	inactive: -0.165
CCTAACAC	inactive: 0.132
ACTCCCTA	inactive: 4e-05
CGGCTTAG	inactive: -0.235
GGGTAGTA	inactive: 0.0131
CACATCAG	inactive: 0.0583
ATTAGTCG	inactive: 0.13
ACGGTCTC	inactive: -0.134
AGTACGCC	inactive: -0.0929
CCGAGCAC	inactive: -0.11
AGAAGGCA	≥ -0.111
GAAGTCCA	inactive: -0.0703
GCATTTAA	inactive: 0.11

Sequence	PBM E-score
CCATCGCG	inactive: -0.1
AGCAGAGA	inactive: -0.0842
GGCGAAAA	inactive: -0.0815
ACGAAATG	inactive: 0.0544
AATGCCGA	inactive: -0.0808
CACCCGAA	inactive: -0.0428
GTCGTCGA	inactive: 0.032
AGCGCCGC	inactive: -0.25
CTATAATC	inactive: 0.135
CTGCCGCA	inactive: -0.22
CTTTAGAA	inactive: 0.0157
ACGTAGGA	inactive: 0.0363
ACGCTGTA	inactive: 0.151
AATCGAAT	inactive: 0.0651
GACTAGCA	inactive: 0.0163
GCGGCAGC	inactive: -0.229
TAACTATA	inactive: 0.18
GCCCAGGA	inactive: -0.148
AGACGATG	inactive: 0.075
GACTTTCC	inactive: -0.089
CATGTAGA	active: 0.391
ATCTGCAC	inactive: -0.0707
GCTGGATA	inactive: 0.0778
CCGAAGCA	inactive: 0.0118
CAACATTG	inactive: 0.286
